Experimental data published in PubChem BioAssay AID463173 (ICCB-Longwood Screening Facility, Harvard Medical School, 2010).
The whole screen tested about 52,000 compounds, of which about 1,700 (3.3%) were called active. No stated cut-off is given here; in the data, active means survival mostly below about 52% (no sharp cut-off); inactive means mostly above about 56%. This is one part of the list.

These molecules were tested on Wild type (assay: growth inhibition of S. aureus wild type versus tarO mutant, primary screen, teichoic acid synthesis inhibitors, RN4220, OD600 (AID 463173)). Settings: S. aureus RN4220 wild type/DeltatarO growth, OD600, 18 h, hits give low values, screened at 18.75 µg/mL (by protocol).
In the case of Cc1ccc(C(=O)c2oc3ccccc3c2NC(=O)Cc2coc3cc(C)ccc23)cc1, the survival is reported as inactive: 81%. COc1ccc(OC)c(C(=O)c2c(N)c(-c3nc(-c4ccc(C)c(C)c4)cs3)c3ccccn23)c1 was tested, and the survival was inactive: 117%. For Clc1cccc(CSc2nncn3c2cc2sccc23)c1, the survival was inactive: 65%. In the case of CCc1ccccc1NC(=O)Cn1ccn(-c2cc(C)cc(C)c2)c(=O)c1=O, the survival is reported as inactive: 91%. In the case of COc1ccc(NC(=O)c2ccc3oc(=O)c(S(=O)(=O)c4ccc(C)cc4)cc3c2)cc1OC, the survival is reported as inactive: 84%. In the case of CCOc1cccc(C2Nc3ccccc3-c3cc(C)nn32)c1O (stereo not drawn), the survival is reported as inactive: 145%. In the case of Cc1nn(S(=O)(=O)c2ccccc2)c(C)c1S(=O)(=O)N1CCC(C)CC1, the survival is reported as inactive: 81%. In the case of CC(C)c1cc(C(=O)O)on1, the survival is reported as inactive: 101%. In the case of CCOC(=O)C1(C)C=C(Nc2ccc(Br)cc2)C(=O)N1c1ccccc1 (stereo not drawn), the survival is reported as inactive: 69%. CCn1c(=NC(=O)c2ccc3c(c2)OCCO3)sc2c(C)ccc(OC)c21 was tested, and the survival was inactive: 129%. Cc1ccc(NC(=O)CSc2nc(C)c(Cc3ccccc3)c(=O)[nH]2)cc1C was tested, and the survival was inactive: 80%. With CS(=O)(=O)NCc1ccc2c(c1)OCO2 the survival was inactive: 110%. In the case of CCN(C(=O)C(=O)Nc1ccc2nc3n(c(=O)c2c1)CCCCC3)c1ccc(F)cc1, the survival is reported as inactive: 94%. With CCN(c1ccccc1)C(CNS(=O)(=O)c1ccccc1)c1ccccc1 (stereo not drawn) the survival was inactive: 73%. With COc1ccc(CCNC(=O)c2ccc3c(c2)CCN3S(C)(=O)=O)cc1 the survival was inactive: 94%. For COc1ccc2c(CNCc3ccc(C)o3)c(C(=O)O)n(Cc3ccccc3C)c2c1, the survival was inactive: 98%. In the case of Cc1nn(C(C)C(=O)NC2CCCCC2)c(=O)c2c1sc1ccccc12 (stereo not drawn), the survival is reported as inactive: 82%. COc1ccc(CC(=O)NC2CC(=O)N(c3cccc(F)c3)C2)cc1 (stereo not drawn) was tested, and the survival was inactive: 110%. With Cc1ccc(OCC(=O)Nc2ccc(OCc3cc(=O)n4cccc(C)c4n3)cc2)cc1C the survival was active: -6%. In the case of COc1ccc(CCNC(=O)Cc2c(C)c3c(cc(C)c4c(C)coc43)oc2=O)cc1OC, the survival is reported as inactive: 87%. For COc1ccc(OC)c(C2NC(=O)NC(C)=C2C(=O)Nc2cc(C)cc(C)c2)c1 (stereo not drawn), the survival was inactive: 72%. For O=C(c1ccc2c(c1)N(Cc1ccccc1)C(=O)c1ccccc1S2(=O)=O)N1CCN(c2ccccc2)CC1, the survival was inactive: 120%. With Cc1c(C(=O)N(Cc2ccc(N(C)C)cc2)C2CCS(=O)(=O)C2)oc2ccccc12 (stereo not drawn) the survival was inactive: 71%. Cc1ccc2sc(N(Cc3cccnc3)C(=O)CCOc3ccccc3)nc2c1C was tested, and the survival was inactive: 63%. With COc1cc(C(=O)CC2(O)C(=O)N(Cc3ccccc3Cl)c3ccccc32)cc(OC)c1OC (stereo not drawn) the survival was inactive: 86%. With CCc1ccc2c(c1)c1nnc(SCC(=O)c3ccc(OC)cc3)nc1n2C the survival was inactive: 106%. O=C(Nc1c(C(=O)N2CCN(c3ccc(F)cc3)CC2)oc2ccccc12)c1c(F)cccc1F was tested, and the survival was inactive: 87%. Cc1nnc(NC(=O)CSc2nc3c([nH]c4ccccc43)c(=O)n2-c2ccccc2)s1 was tested, and the survival was inactive: 75%. With COc1ccc(C2CC(=O)c3cc(-c4nc(-c5cccc([N+](=O)[O-])c5)cs4)c(=O)n(-c4ccc(C)c(C)c4)c3C2)cc1 (stereo not drawn) the survival was inactive: 156%. CCC(Sc1nc2ccccc2c2nc(CCn3cncc3C)nn12)C(=O)Nc1cccc(OC)c1 (stereo not drawn) was tested, and the survival was inactive: 72%. With CC(C)Oc1ccc(C(=O)Nc2ccc3c(c2)CCCN3C(=O)c2cccs2)cc1 the survival was inactive: 49%. For COc1ccc(Cn2c(CNC(=O)c3ccc(N(C)C)cc3)nc3cccnc32)cc1, the survival was inactive: 72%. O=C(Cn1cc(SCc2ccc(C(F)(F)F)cc2)c2ccccc21)N1CCCCCC1 was tested, and the survival was inactive: 80%. For CCC1CCCCN1CCCNC(=O)CN1C(=O)c2cccnc2Oc2ccc(Cl)cc21 (stereo not drawn), the survival was inactive: 65%. COc1ccc(CCNC(=O)c2ccc(Cn3c(=O)c4ccccc4n(Cc4cc(C)ccc4C)c3=O)cc2)cc1OC was tested, and the survival was inactive: 97%. Cc1ccc2oc(=O)c3cc(C(=O)Nc4ccc(F)cc4F)sc3c2c1 was tested, and the survival was inactive: 80%. Cc1cc(C)c2nc(N3CCCC(C(=O)NCc4cccc(Br)c4)C3)sc2c1 (stereo not drawn) was tested, and the survival was inactive: 70%. In the case of Fc1ccc(Nc2nc3ccccc3c3nncn23)c(Cl)c1, the survival is reported as inactive: 96%. With CC(C)CSc1nnc(-c2ccccc2)c(-c2ccccc2)n1 the survival was active: -4%. Cc1ccc(NC(=O)c2oc3ccc(S(=O)(=O)N4CCCCCC4)cc3c2C)cc1Cl was tested, and the survival was inactive: 88%. CCOC(=O)c1ccc(N2CCN(c3ccccc3F)CC2)c(NC(=O)Nc2ccc(Cl)c(Cl)c2)c1 was tested, and the survival was inactive: 65%. COc1ccc(C)c2sc(N(Cc3cccnc3)C(C)=O)nc12 was tested, and the survival was inactive: 59%. In the case of Cc1ccc(Cl)cc1NC(=O)CN1C(=O)c2cccc3cccc1c23, the survival is reported as inactive: 71%. For CCCN1C(=O)c2[nH]nc(-c3ccccc3O)c2C1c1ccc(OCc2ccccc2)c(OCC)c1 (stereo not drawn), the survival was inactive: 66%. With C=CCNc1nc(-c2ccccc2)cs1 the survival was inactive: 109%. For COc1ccc(-c2nc3ccccc3s2)cc1NC(=O)COc1ccccc1C, the survival was inactive: 133%. In the case of COc1ccccc1OCCn1c(NC(=O)c2ccc(Cl)cc2)nc2ccccc21, the survival is reported as inactive: 80%. In the case of C=CCN(CC=C)C(=O)C1CCN(Cc2cc(Br)c(O)c(OC)c2)CC1, the survival is reported as inactive: 98%. In the case of CCc1ccc(NC(=O)C2CCC(CNS(=O)(=O)c3ccc4c(c3)CC(C)N4C(C)=O)CC2)cc1 (stereo not drawn), the survival is reported as inactive: 113%. For CCOC(=O)CSc1ccc2nnc(CCNS(=O)(=O)c3ccccc3)n2n1, the survival was inactive: 87%. In the case of Cc1ccc(CCNC(=O)C(NS(=O)(=O)c2ccc3c(c2)oc(=O)n3C)C(C)C)cc1 (stereo not drawn), the survival is reported as inactive: 85%. For Cc1ccc(N(CC(=O)N2CCN(c3ccccc3F)CC2)S(=O)(=O)c2c(C)noc2C)cc1, the survival was inactive: 75%. For O=C(Nc1cccc(C(=O)OCc2cc(=O)n3nc(C4CC4)sc3n2)c1)c1cccc(F)c1, the survival was inactive: 63%. With O=C(NC1CCCCC1)C(c1cccs1)N(Cc1cccs1)C(=O)c1cccs1 (stereo not drawn) the survival was inactive: 116%. For COc1cc2c(cc1OC)C(c1ccc(F)cc1)N(c1cccc(C#N)c1)C(=O)C2 (stereo not drawn), the survival was inactive: 85%. For O=C(NCCc1ccccc1)c1ccc2c(c1)N(Cc1c(F)cccc1Cl)C(=O)CS2, the survival was inactive: 84%. In the case of Cn1c(=O)c(=O)n(C)c2cc(S(=O)(=O)N3CCCC3C(=O)Nc3ccccc3F)ccc21 (stereo not drawn), the survival is reported as inactive: 71%. In the case of COc1ccc(Cn2ccn(Cc3cccc(C)c3)c(=O)c2=O)cc1, the survival is reported as inactive: 111%. COc1cc2c(cc1OC)C(COc1ccc3c(C)cc(=O)oc3c1)N(C(=O)c1cccc(C)c1)CC2 (stereo not drawn) was tested, and the survival was inactive: 78%. For CCOc1ccc(-n2c(SCC(=O)NCC3CCCO3)nc3c([nH]c4ccccc43)c2=O)cc1 (stereo not drawn), the survival was inactive: 88%. For N#CC(C#N)=C(N)/C(C#N)=C\c1ccc(-c2ccccc2)o1, the survival was inactive: 129%. Cc1ccc(N(CC(=O)Nc2cccc(F)c2)S(=O)(=O)c2cccs2)cc1 was tested, and the survival was inactive: 91%. For COc1ccc(NC(=O)CSc2nncn3c2cc2oc(C)cc23)cc1OC, the survival was inactive: 107%. CC1(C(=O)Nc2cccc(Br)c2)Cc2ccccc2C(=O)O1 (stereo not drawn) was tested, and the survival was inactive: 85%. For CC(=O)N1CCCc2cc(S(=O)(=O)N3CCC(C(=O)NC4CCC(C)CC4)CC3)ccc21 (stereo not drawn), the survival was inactive: 65%. For CCc1ccc(NC(=O)CSc2nccn2-c2ccc(OC)cc2)cc1, the survival was inactive: 153%. In the case of CNC(=O)C1CCC(Cn2c(=O)c3sccc3n(Cc3ccc(F)cc3)c2=O)CC1 (stereo not drawn), the survival is reported as inactive: 71%. For COCCCNC(=O)CCC(=O)N1Cc2cccc(OC)c2Oc2ncccc21, the survival was inactive: 79%. Cc1ccc2nc(N3CCN(Cc4nnnn4C4CCCC4)CC3)c(C#N)cc2c1 was tested, and the survival was inactive: 106%. In the case of CCc1ccc(N2C(=O)C3C4CCCC4=C4CCCC4C3C2=O)cc1 (stereo not drawn), the survival is reported as inactive: 116%. In the case of OC1CCN(c2cc(-c3ccccc3)nc3cc(-c4cccc(Cl)c4)nn23)CC1, the survival is reported as inactive: 107%. In the case of Nc1nc(SCC(=O)N(CCO)CCO)nc2sc3c(c12)CCCC3, the survival is reported as inactive: 105%. COC(=O)c1ccccc1NC(=O)c1ncoc1-c1ccco1 was tested, and the survival was inactive: 83%. In the case of CCn1c(C(=O)NCc2ccccc2C)cc2oc3ccccc3c21, the survival is reported as inactive: 15%. With Cc1nc(-c2cccc(NC(=O)Nc3ccc([N+](=O)[O-])cc3)c2)no1 the survival was inactive: 120%. With Cc1ccccc1OCCSc1nc2ccc(NC(=O)c3ccccc3)cc2s1 the survival was inactive: 85%. For COC(=O)Cn1nc(C)c2c(C)n(-c3ccccc3)nc2c1=O, the survival was inactive: 76%. CCCN1C(=O)c2[nH]nc(-c3ccccc3O)c2C1c1ccc(OCc2ccccc2)c(OC)c1 (stereo not drawn) was tested, and the survival was inactive: 64%. For COc1cc(C(=O)N2CCN(c3ccc(Nc4ccc(C)cc4)nn3)CC2)cc(OC)c1OC, the survival was inactive: 77%. In the case of Cc1ccc(C(=O)Nc2cccc(OCc3cc(=O)n4c5c(sc4n3)CCCC5)c2)cc1, the survival is reported as inactive: 134%. For COc1cccc2c1cc1c(=O)n(CC(=O)NC3CCCCC3)nc(C)n12, the survival was inactive: 86%. With COc1ccc(C2CC(=O)C(C=NCC(C)C)=C(O)C2)cc1 (stereo not drawn) the survival was inactive: 103%. CCOC(=O)c1ccc(NC(=O)Cn2c(=O)cc(C)c3c(C)nn(-c4cccc(F)c4)c32)cc1 was tested, and the survival was inactive: 97%. NC(=O)CSc1oc(-c2ccco2)nc1S(=O)(=O)c1ccc(Cl)cc1 was tested, and the survival was inactive: 68%. Cc1ccc(NC(=O)c2cc3cc(C)ccc3n2C)cc1 was tested, and the survival was inactive: 93%. Cc1nn(Cc2ccccc2Cl)c(C)c1NC(=O)c1cc(C(C)C)on1 was tested, and the survival was inactive: 66%. In the case of CCC1CCCCN1C(=O)Cn1c(=O)oc2cc(S(=O)(=O)N3CCCCC3)ccc21 (stereo not drawn), the survival is reported as inactive: 85%. O=C(NCCc1ccccc1)c1sc2ncccc2c1-n1cccc1 was tested, and the survival was inactive: 75%.
